Laboratory results from patent publication US8198405B2, “Stabilized alpha helical peptides and uses thereof” (Dana-Farber Cancer Institute, Inc., priority 2003, dated 2012).

System: RS4; 11 leukemia cells
Settings: for leukemic growth (bioluminescent flux): 10 mg/kg daily tail vein injection for seven days

SMILES | leukemic growth (bioluminescent flux) | median survival (10 mg/kg daily for seven days) [days]
CCCC[C@H](NC(=O)[C@]1(C)CCCC=CCCC[C@](C)(NC(=O)[C@H](C)NC(=O)[C@H](CC(C)C)NC(=O)[C@H](Cc2c[nH]cn2)NC(=O)[C@H](CCCNC(=N)N)NC(=O)[C@H](C)NC(=O)[C@@H](NC(=O)[C@H](CC(N)=O)NC(=O)[C@H](CCCNC(=N)N)NC(=O)[C@@H](NC(=O)[C@@H](NC(=O)[C@H](CC(=O)O)NC(=O)[C@H](CCC(=O)O)NC(C)=O)[C@@H](C)CC)[C@@H](C)CC)[C@@H](C)CC)C(=O)N[C@@H](C(C)C)C(=O)N[C@@H](CCC(=O)O)C(=O)N[C@@H](CC(=O)O)C(=O)N1)C(=O)N[C@@H](CC(=O)O)C(=O)N[C@@H](CCCNC(=N)N)C(=O)N[C@@H](CO)C(=O)N[C@H](C(=O)N[C@@H](Cc1c[nH]c2ccccc12)C(N)=O)[C@@H](C)CC [SAHB3BID(G→E)A] (Ac-EDIIRNIARHLA[S5]VED[S5][Nle]DRSIW-NH2; staple 13-17; N-terminus assumed) | did not exhibit tumor regression | 
CCCC[C@H](NC(=O)[C@]1(C)CCCC=CCCC[C@](C)(NC(=O)[C@H](C)NC(=O)[C@H](CC(C)C)NC(=O)[C@H](Cc2c[nH]cn2)NC(=O)[C@H](CCCNC(=N)N)NC(=O)[C@H](C)NC(=O)[C@@H](NC(=O)[C@H](CC(N)=O)NC(=O)[C@H](CCCNC(=N)N)NC(=O)[C@@H](NC(=O)[C@@H](NC(=O)[C@H](CC(=O)O)NC(=O)[C@H](CCC(=O)O)NC(C)=O)[C@@H](C)CC)[C@@H](C)CC)[C@@H](C)CC)C(=O)N[C@@H](C(C)C)C(=O)NCC(=O)N[C@@H](CC(=O)O)C(=O)N1)C(=O)N[C@@H](CC(=O)O)C(=O)N[C@@H](CCCNC(=N)N)C(=O)N[C@@H](CO)C(=O)N[C@H](C(=O)N[C@@H](Cc1c[nH]c2ccccc12)C(N)=O)[C@@H](C)CC [SAHB3BIDA] | tumor regression observed by day 5 | 11

Where a SMILES comes first, the peptide text is derived from it. Bridges are numbered along the chain shown (N, C = ends). [ ]: non-standard residue; d: D form. S5 = C=CCCC[C@](C)(N)C(=O)O; Nle = CCCC[C@H](N)C(=O)O
